From the supplement of paper PMC12632987
The full ranking holds about 2,300 sequences; the median of “median log2 fold change of GCK-ALFA target abundance (FLAG IP / Myc IP barcode read proportion)” is about 0.095, and the lowest 2% start at about -0.47. The list shows a part of the results.

B1: LC3A_28_1083 (protein)
chain: SAIQEQIEAAIAALREAKARGEEALLEITLTEDATQEDIDLAIEGLREIAELARDAKKVTVVINLDGKIPQEHIDRLADAAEEIEKEVPNVTVIIALDEN
B2: LC3A_37_1346 (protein)
chain: MERLLIVAVGRTEAALEKVRPTLERLAARSGAEVRTVVAPADATETELLERAEEEVEEIKEELEKETGKKIKSSTIFSVERDPETGETVVIAYSLLEEVE
B3: LC3A_28_1164 (protein)
chain: SETEKSLEEALKEAKEAAEKKEPKTIVIKIEGGITQEETDKVIEALEEIAELLKDIPGSAIVIDISSGVSQEQLNKILDAAEEIEEKYPNVTVIIALDEN
B4: LC3A_3_1764 (protein)
chain: MEEFIEEAAEELREAGASEELIELASEALRLLLERGLEETAERFKEVLLELLKKSEELALDLAREVLELLKTSTLSPEELAEEVESLMNAALSEAEIEEL
B5: LC3A_45_1969 (protein)
chain: MARATVDLLVPREKAEEAYKIIKEFAEEAKEKYGDKVEFDWETLDESYEASKNEEEVYFRVVITAETKELALEVADELVERLEEELGVPIAAIISLEELP
B6: LC3A_102_149 (protein)
chain: SAVEKLKKLEEKALKEAKKIAEKLKKKDPELAKKVLELLEEGIKAITESAISEVQHGFTDIYAEDLAEEKLEELKKLGEEEGVKLLEKVREEAKKIVEEA
B7: LC3A_28_1010 (protein)
chain: MSVVEETKKEAEKALEEAKKGNDAYLEIKITKDTTLEEVKEIGKIIEETAKKISEIENVKLYIVVDDDSNEEKHNIILDKLDEIEKKYPNVSSIVAYTDE
B8: LC3A_28_1109 (protein)
chain: SKTEEQIKKALEKAKEAAKKGEPVVITLTVTSEDTEEDIEKILKALEEIAEILKDVEGAAIIIDLDGKIPQEHLDKLADKAEEIEKKYPNVTVIIALDEN
B9: LC3A_102_137 (protein)
chain: ELEKVAEEVEAELEKEVEELLAKRTDLTPEEKEELRRLARRAFEAAKESWRDYVEHGFVDIVAEDESLRAIDELAARDPELAAVVRRKVEELRERAEKLK
B10: LC3A_28_1311 (protein)
chain: TPIEEKLAAAIAEAEAAAKAGEPVVVTVDITAEEAEKNLELILEGLERLGEVLSKVPDAAIIIDVDEDVDPEHLKKIADRAEEIEEKYPNVTVIIAIEDK
B11: LC3A_28_1293 (protein)
chain: SEIEKNLEEALARAKEAVAAGKQEVIEVNVPGDATEEEIEKVIEGLEEIAEVLKTVPNQSIIINVDAGVPQEYINKLADKAEEIEKKYPNVTVIIALDED
B12: LC3A_free_46_2407 (protein)
chain: YIAEISIDLLADSLEKAEAARKEIEEAARKIAEEHGAKLKIESEIEEEPDGKVFVRIDLIIEAEDLETLKAAVNEIIDAAVEIAEKEGASIIISYEISEK
B13: LC3A_3_1581 (protein)
chain: MEERLAAYEAELRAAGLSPEVVAKATEVLTLALERGLLETADYILESMLELKDADPELLLETLDEIKAILDDESLSDEEKTAKVKEELNTALSESEIIEL
B14: LC3A_23_599 (protein)
chain: MYKVTVTIDAIGDKEELEKKVEELKKGVEELIEKYKDKVISYEIEVEFEELEDGKTYMTVTITIILKDDKEVAEKIAQELTDIADKVFPDGVISSDVEKL
B15: LC3A_28_1189 (protein)
chain: SELDKQLEEAIKEAKELAEKGEPAVITIKVPGDADEEDIEKVIETLEEIAEILKDIPGSAIIIDLDGGVKQEHIDKLAEKAEEIEKKYPNVTVILALEER
B16: LC3A_132_316 (protein)
chain: MEEEYKKLLEEAEKKLEEAKKNVNDKEKVEKLLKEIRKLLEEAEKKVTPEQQAELFERVAEKLWEISKLADEAGQEDVADLADGLAVEAAARAIRAEEKI
B17: LC3A_132_303 (protein)
chain: EEELVKELIKTAKEALDIAKTDPSKVEEILAKLKEIRKLMKEVAEKVSPEKAAKAFEEVMDILIELSRIAAKAGQDEVADEAFALAAEAAQLAEEARKKI
B18: LC3A_6_2062 (protein)
chain: TKLTITIDALIKEEYLDRREEVAEEFKKAVEEAMEELKKKLGDNIKEVKIELETEGDFIRITVTVETEEKNIPEVLKAIDEVVESFEKYFSAAIISYEIE
B19: LC3A_28_1034 (protein)
chain: MELEKKAREAVEEAREQAAKGEEAVVTIEVGEMPTEEAERVVRETLEELIKISREYGNVKISVVIDVDGDQETADALIDVAEEAEKENPNLTVIIALDED
B20: LC3A_17_537 (protein)
chain: MEELRKRLEEVLRELERLVERVRPYVPEAAERAEERLREARELLERGDLEGAARLVVEVAEELADALEEAEFADPVEREVLIMEAEGLAIEAELILLKLE
B21: LC3A_28_1110 (protein)
chain: MDPEEKNEEALKEAKEAAKKGEPAVITIHVTSSDTEEDIEKTIETLKEIAELLKDVKDAAIIVDIDGKIPQEHLDKLAKEAEEIEKKYPNITVIIALDEN
B22: LC3A_78_2083 (protein)
chain: MKVIIVVDGEEAKEEAEKIKEKLKDADEIIVVELEELEEALEKVKDAEEIEVIIIAPTLDKVEEAIEKVKEFFKDRKMSEIIEIDEETGLYIGIVIIEKK
B23: LC3A_28_1130 (protein)
chain: SEADAIIAQAEAQTAAGIAAGEDVYVDLTITGVLTEEETRRIAAAIREQAKKAAAKGKVYIVITFDKLENAAQADLMADAADEIEAEYPNVSVIIALPED
B24: LC3A_free_39_2220 (protein)
chain: MREELEELVERIAEKSGLDLEEVRERLEELQEVGGLTEEQMLEIARELLEAVEAGADAREILERALEIAKELKAQGKTPEEIAKEILELIRDARNLVPLD
B25: LC3A_28_926 (protein)
chain: MTKEEVIEEIEETAEEAIESGEEAHIEVDIDSSMTKEEAEEVMEKVEEKVKELSEKGIKVLITVDLDNVSQEVEDIVVERLEEIEEEYPLVSSIIALDEE
B26: LC3A_3_1800 (protein)
chain: AEEKIAALLAALREAGKSEETIAAVREAAELLAERGFERALETFIAEMRELLDAPDELLLELAEEVLRRLRTEDLSEEELIEYIRELARLARNEAEIEEL
B27: LC3A_127_172 (protein)
chain: EKEELLEKLEELLEKLSEELSKENYDLEEIEKLTEEAIEVAKKLLELDPSFEPALKTLEEIKKIIEEMKKADEAKKEELKEHALLLVEGALIEVLSLRLK
B28: LC3A_132_235 (protein)
chain: QEEKYKEIREKLEELLEEARKNIDDLEKVQELVKQIQALLDEAKKELSLEKFIELAEEVAERLDELAEEAEAAGKEEVASLLENASLYADGLAIEAELKL
B29: LC3A_23_634 (protein)
chain: MYRLEIEIDLLGKKEDVLKAVEELKEHIEEVAEEEGVEIEELEVEIEEINDPEGTTTYARINVVLRGETKEKLQAVADAIIDKVEELGVSHIISVDIEKL

What follows are binders tested against MAP1LC3A, Q9H492 (assay: median log2 fold change of GCK-ALFA target abundance (FLAG IP / Myc IP barcode read proportion) (log2 ratio); each designed protein is fused to an ALFA-tag nanobody in HEK293 cells to bring the named protein to FLAG-tagged glucokinase (GCK); Myc marks an untargeted standard; higher = target protein stabilised (more abundant)). Conditions: target protein: 3xFLAG-MCP-GCK-ALFA reporter; HEK293 landing pad (RPLP).
Method in brief: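 An ALFA-nanobody-fused binder library was recombined into HEK293 landing-pad cells and induced with 2 μg mL^−1 doxycycline. Cells were transfected with a plasmid expressing a FLAG-tagged target and a Myc-tagged standard. After 48 h, lysates underwent anti-FLAG and anti-Myc immunoprecipitation, and circular RNA barcodes were reverse transcribed, amplified and sequenced. Target abundance is the per-binder median log2 ratio of FLAG to Myc barcode read proportions. Barcodes needed ≥10^−7 proportion in both replicates, binders ≥3 barcodes per replicate, and a 10^−6 pseudocount was added; the two replicates were pooled.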
With B1 the “median log2 fold change” value was 0.181. For B2, the “median log2 fold change” value was -0.245. For B3, the “median log2 fold change” value was -0.0529. With B4 the “median log2 fold change” value was 0.243. In the case of B5, the “median log2 fold change” value is reported as 0.0353. For B6, the “median log2 fold change” value was 0.245. With B7 the “median log2 fold change” value was -0.515. B8 was tested, and the “median log2 fold change” value was 0.0394. For B9, the “median log2 fold change” value was 0.194. In the case of B10, the “median log2 fold change” value is reported as 0.178. In the case of B11, the “median log2 fold change” value is reported as 0.141. For B12, the “median log2 fold change” value was -0.408. With B13 the “median log2 fold change” value was 0.31. For B14, the “median log2 fold change” value was -0.25. For B15, the “median log2 fold change” value was 0.119. In the case of B16, the “median log2 fold change” value is reported as 0.241. In the case of B17, the “median log2 fold change” value is reported as 0.291. B18 was tested, and the “median log2 fold change” value was -0.06. B19 was tested, and the “median log2 fold change” value was 0.0335. In the case of B20, the “median log2 fold change” value is reported as -0.141. In the case of B21, the “median log2 fold change” value is reported as 0.0413. With B22 the “median log2 fold change” value was 0.257. In the case of B23, the “median log2 fold change” value is reported as -0.26. In the case of B24, the “median log2 fold change” value is reported as 0.312. In the case of B25, the “median log2 fold change” value is reported as -0.244. B26 was tested, and the “median log2 fold change” value was 0.197. With B27 the “median log2 fold change” value was 0.145. B28 was tested, and the “median log2 fold change” value was 0.122. With B29 the “median log2 fold change” value was 0.231.
